Our source for the self-cleavage values is the RNAGym collection of RNA variant scans (doi:10.1093/nar/gkz1192).

The source gives no read counts; variants with many changes may rest on few reads.

The labels stand for the following.
B1: CPEB3 Ribozyme (parent)
chain: UAACAGGGGGCCACAGCAGAAGCGUUCACGUCGCAGCCCCUGUCAGAUUCUGGUGAAUCUGCGAAUUCUGCUGUAUAUCUC

In the data set the parent is B1. Put plainly: self-cleavage, relative activity (ratio to wild type); higher = more cleavage; in vitro, sequencing. In short, it runs like this:
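Libraries of CPEB3 self-cleaving ribozyme mutants came from rounds of error-prone PCR and carried barcodes, which DNA sequencing matched to variants. In vitro transcription used T7 RNA polymerase at 37°C for 5 hours, with a further 15 min in DNase I before EDTA stopped the reaction; the ribozymes cleaved during both steps. The RNA was reverse transcribed with template switching and sequenced on Illumina. Relative activity is the cleaved/total read fraction of a variant divided by that of the unmutated ribozyme, averaged over three batches with at least 5 reads.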
A15U A18G G19A A28G A45U U74A: the self-cleavage came to 0.08. The same measure for A15G U43C A57U A64G U78C: 0.09; for A15G A56U U69A: 0.19; for A15U A20G G22C: 0.22. Take A15U U25C C62U U69A: the self-cleavage came to 0.08. The figure for A15U U25C A65G is 0.22; for A15G U48C U67C U69C it is 0.14. The figure for A15U A35U A64G is 0.31; for A15G C59U U69C it is 0.19. As to A15G G42C A64G, the self-cleavage was 0.31. The figure for A15G U25C U26A U43C A75U is 0.08; for A15G U41C G42U U54A it is 0.13.

Regarding A15U A28U U31A U43C U54C, the self-cleavage was found to be 0.09. The same measure for A15U A18U A35C U51C U60A A64G: 0.15; for A15G G36U U41A U49A U67G U72A: 0.07; for A15U U26G U31A A65U U76A: 0.41.

As to A15G C29A U41A U48C, the self-cleavage was 0.31.

For A15G U48G U54A A64G, the self-cleavage is 0.07. Turning to A15U A18G C32A A35G C37A, the self-cleavage was 0.05. In the case of A15G G24A C38A U43C A56G A65G, the self-cleavage is 0.19. The same measure for A15G U31A C71A: 0.09; for A15U A20G C23A A56G U80C: 0.08; for A15U C29U U69G: 0.41.

Turning to A15G U43A U48C U69C, the self-cleavage is 0.32. The figure for A15U A18G U25C A64G is 0.24; for A15G U26C C81U it is 0.6; for A15G G16U A18G U72C it is 0.4. The same measure for A15U A20U U72C A77G: 0.18; for A15U A21G G46U U78C: 0.08. On to A15G U26C A28U A35U U60C G61U U69C, for which the self-cleavage was 0.12. The figure for A15G A65G U69C is 0.27; for A15U C29U U43C A64G U69C U72C it is 0.04.

As for A15U U25C U31C A56G U80A, the self-cleavage was 0.41. Regarding A15U U26C A57G C68U, the self-cleavage turned out to be 0.19. With A15G G22C U51G, the self-cleavage is 0.28. The figure for A15G U25C C37U A77U is 0.51; for A15U C27A G53C it is 0.06; for A15U U25C U43C A45G C71U it is 0.09. A15U C17U C32A A35U G53A: the self-cleavage is 0.04. As to A15G U26C C39A U48C U60C, the self-cleavage came out at 0.08. The figure for A15U A35G U49C is 0.83. Consider A15U A21G U60A, for which the self-cleavage came to 0.21. The same measure for A15U A35G U60A: 0.72; for A15U C29G U49C U51C U76C: 0.06; for A15G U26C U66C: 0.31. The same measure for A15U C37A U51C: 0.14; for A15U U25G A57U A64G U69A: 0.1; for A15G U26C A56U U74C: 0.21. Turning to A15U A21G U41A U67G, the self-cleavage was 0.12. The figure for A15G G16C U25A U31C is 0.06.

For the variant A15G G73A U80C, the self-cleavage turned out to be 1.23. The same measure for A15U A28C U31G A47U A75U: 0.04; for A15G U41C U60C: 0.27. The same measure for A15G U26A U43G G63A: 0.12. For the variant A15U A18U U25G A28G A56G U66A, the self-cleavage was 0.06. The figure for A15U C40U A64G U78C is 0.14. Regarding A15G U41C A45G U60C A64U A75U, the self-cleavage worked out at 0.35. The figure for A15G U26C A45G U54C is 0.38; for A15U A35U A47G A56G G61A it is 0.06; for A15U A28G U74C A75U it is 0.16. The same measure for A15G A64G C71A: 0.15; for A15U A28U A64U U69C: 0.18; for A15G A47G U54C: 0.84.

A15G U26A U31A A35G U41A U49C: the self-cleavage stood at 0.2.

As for A15G U41C A57G U78C, the self-cleavage is 0.41.

For the variant A15U A35U C44U U76C, the self-cleavage amounted to 0.17. The same measure for A15G U26A A45G U58C A75G: 0.13; for A15G C17U A28G A45G: 0.37. Turning to A15G U58C A64G U69A, the self-cleavage stood at 0.35. The figure for A15G C32U U51G A56G is 0.34; for A15U U25A U48C it is 0.49; for A15G U25C U43C U60C it is 0.2. The same measure for A15G U43G U54C U58C U67A: 0; for A15U U25C U26C A65G: 0.07; for A15U C40U U41G A56G: 0.17. Turning to A15G G36U C44U U72A U74C, the self-cleavage is 0.06. The figure for A15U A21U U43C A45C U51A U67C G70A is 0.06; for A15U A21G U48C it is 0.16; for A15G C23A U25A C44U it is 0.19. The same measure for A15G U26A U49C A75U U80C: 0.53. A15G G16C A35U U43C U67A U69C: the self-cleavage was found to be 0.41.

Take A15G A45U U80C: the self-cleavage is 0.54. The figure for A15U C38U G63A is 0.46. The figure for A15U G33U C38U is 0.13.
